These results are taken from PubChem BioAssay AID1963576 (National Center for Advancing Translational Sciences (NCATS), 2024).

Hit rate of the full screen: of about 46,000 compounds, about 60 (0.1%) were called active. Roughly 3% stayed inconclusive and do not appear here. Calls come from the whole dose curve; as a rule, active = well fitted inhibition curve with a large enough effect; inconclusive = small, poorly fitted or top-dose-only effect; inactive = no such curve, though single readings can be large or run the other way. The list shows a part of the results.

This assay in a line: Primary qHTS assay for Inhibitors of ovarian cancer metastasis using an organotypic tumor microenvironment (TME) model.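 For activity change, negative = inhibition: plate controls were DMSO wells for no effect and tomatine positive control wells for full effect.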 Note: nearly all actives have a fitted effect of over 65% in size. Particulars: SKOV3ip1-GFP adhesion/invasion on 3D omental model, fluorescence; series mostly up to 45.8 µM; activity change, negative = inhibition: at the top concentration. The procedure, abridged:
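A 3D layer of primary human omental fibroblasts, mesothelial cells, fibronectin and collagen I, grown 48 hr, received SKOV3ip1-GFP cells in serum-free medium plus compounds at 0.36-46 umol/L. After 2 hr RT and 16 hr 37 C, fixed adherent GFP cells were counted; normalized to DMSO and tomatine.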
Background: qHTS replaces the single test concentration by a dilution series.
For the compound `COc1cccc(CNC(=O)C2CCN(C(=O)c3cnn(-c4ccccc4)c3-n3cccc3)CC2)c1`, the “activity change, negative = inhibition” value was inactive: -2.46%.

In the case of `COc1ccc(-c2cc(C(C)=O)c(C)n2CCC(=O)NCc2ccc(C)cc2)cc1`, the “activity change, negative = inhibition” value is inactive: 1.74%.

For `CNC(=O)c1c(NC(=O)c2nc(SCc3ccc(C)cc3)ncc2Cl)sc2c1CCCC2`, the “activity change, negative = inhibition” value was inactive: -2.82%.

Consider `CCOC(=O)c1cc(S(=O)(=O)N2CCN(c3cccc(C)c3C)CC2)[nH]n1`, for which the “activity change, negative = inhibition” value was inactive: 15.3%.

`CCCS(=O)(=O)c1ncc(Cl)c(C(=O)Nc2c(C(=O)Nc3ccccc3)oc3ccccc23)n1`: the “activity change, negative = inhibition” value is inactive: -12.2%.

For `COc1ccccc1OCC(=O)N1CCC(c2nc3ccccc3o2)CC1`, the outcome was inactive.

In the case of `Cc1ccc(-n2ncc(C(=O)NC3CCCCC3)c2C2CCN(C(=O)OC(C)(C)C)CC2)cc1`, the “activity change, negative = inhibition” value is inactive: -3.81%.

In the case of `COc1ccc(Nc2nnc(-c3ccc(C)c(S(=O)(=O)NCCO)c3)c3ccccc23)cc1C(N)=O`, the outcome was inactive.

On to `CCN(c1ccccc1C)S(=O)(=O)c1nnc(NC(=O)c2ccco2)s1`, for which the “activity change, negative = inhibition” value was inactive: 7.54%.

On to `COc1ccc(N(C)C(=O)c2cc3c(s2)-c2c(C)cccc2OC3)c(OC)c1`, for which the “activity change, negative = inhibition” value was inactive: 11.5%.

Take `COc1ccc(-c2c(C)nn3c(C(F)(F)F)cc(-c4ccccc4)nc23)cc1OC`: the compound was classed as inactive.

In the case of `Cc1ccc(NC(=O)c2c(C)oc3c2C2=NCCN2C=N3)cc1F`, the outcome was inactive.

With `COc1ccc(CNc2nc3c(-c4cccc(F)c4)nnn3c3ccccc23)cc1`, the “activity change, negative = inhibition” value was inactive: 22%.

`O=C(Nc1cccnc1)c1cc(-c2ccc(Cl)cc2)on1`: the “activity change, negative = inhibition” value is inactive: -12.3%.

On to `O=C(Cn1cccc1C(=O)c1ccccc1)NCc1ccccc1Cl`, for which the “activity change, negative = inhibition” value is inactive: 5.22%.

On to `O=C(c1ccc2c(c1)N(Cc1cccc(F)c1)C(=O)c1ccccc1S2)N1CCC2(CC1)OCCO2`, for which the “activity change, negative = inhibition” value was inactive: 5.49%.

For the compound `CCc1ccc(-n2c(=O)c3sc4ccccc4c3n(CC(=O)NCc3ccccc3)c2=O)cc1`, the “activity change, negative = inhibition” value is inactive: 22.5%.

In the case of `COc1ccc(C2=C(N3CCN(c4cc(C)ccc4C)CC3)c3ccccc3C2=O)cc1`, the “activity change, negative = inhibition” value is inactive: 6.27%.

Turning to `Cc1c(Cl)cccc1NC(c1ccc(F)cc1)c1nnc(-c2ccccc2)o1` (stereo not given), the call was inactive.

On to `COC(=O)c1cc2sccc2n1CC(=O)Nc1ccc(OC)c(OC)c1`, for which the “activity change, negative = inhibition” value was inactive: -12.4%.

Turning to `Cc1cccn2c(=O)cc(CSc3nnc(NC(=O)COc4ccccc4)s3)nc12`, the compound was classed as inactive.

Turning to `Cc1ccc(C)c(CN2CCCN(CC(=O)Nc3ccc(C)c(C)c3)S2(=O)=O)c1`, the “activity change, negative = inhibition” value was inactive: 3.45%.

Regarding `Cc1ccc(S(=O)(=O)NCc2nc3nc(C)cc(C)n3n2)cc1`, the “activity change, negative = inhibition” value is inactive: 0.821%.

Take `Cc1cccc(C)c1OCC(=O)NC(Cc1c[nH]c2ccccc12)C(=O)O` (stereo not given): the “activity change, negative = inhibition” value is inactive: 3.5%.

Take `CS(=O)(=O)Nc1ccc([N+](=O)[O-])cc1Oc1ccccc1`: the “activity change, negative = inhibition” value is inactive: -13.3%.

Regarding `Cc1ccc(-n2c(=O)c3c4c(sc3n(CC(=O)Nc3cccc(Cl)c3)c2=O)CCCCC4)cc1C`, the “activity change, negative = inhibition” value was inactive: -9.23%.

On to `CCn1cc(C(=O)O)c(=O)c2cc(F)c(N3CCNC(C)C3)c(F)c21` (stereo not given), for which the “activity change, negative = inhibition” value is inactive: -16.3%.

For `Cn1cc(C(=O)NCc2ccccc2Cl)c(=O)c2cc(S(=O)(=O)N3CCCCCC3)ccc21`, the “activity change, negative = inhibition” value was inactive: 31.6%.

For the compound `CCOC(=O)c1c(S(=O)(=O)N2CCC(C(=O)N3CCN(c4ccccc4F)CC3)CC2)c(C)n(C)c1C`, the “activity change, negative = inhibition” value is inactive: 1.52%.

Consider `COc1cc(Cl)c(C)cc1NC(=O)CCc1nc2cccnc2n1Cc1cccs1`, for which the “activity change, negative = inhibition” value was inactive: 1.06%.

For `COc1ccc(NC(=O)C2CCN(S(=O)(=O)c3c(C)noc3/C=C/c3cccs3)CC2)cc1`, the result was inactive.

Consider `Cc1cccc(Cn2c(SCc3ccc(C(=O)NC4CCCC4)cc3)nc3cccnc32)c1`, for which the “activity change, negative = inhibition” value was inactive: 3.55%.

`CCOC(=O)c1ccc(NC(=O)CCCn2c(=O)c3cccn3c3cccnc32)cc1`: the “activity change, negative = inhibition” value was inactive: -3.83%.

With `CC(C)N(Cc1ccccc1)C(=O)Cn1ncc2c3ccccc3n(Cc3ccccc3)c2c1=O`, the “activity change, negative = inhibition” value was inactive: 4.55%.

`COc1ccc(CCNC(=O)c2cn(C)c3ccc(S(=O)(=O)N4CCOCC4)cc3c2=O)cc1OC`: the “activity change, negative = inhibition” value was inactive: 17.3%.

On to `COC(=O)c1ccccc1NC(=O)c1ccc(-c2nc(CSc3ccc(C)cc3)c(C)o2)cc1`, for which the compound was called inactive.

For `CN(Cc1ccccc1)C(=O)CCS(=O)(=O)c1ccc2c(c1)oc(=O)n2C`, the “activity change, negative = inhibition” value was inactive: -9.01%.

Consider `O=C(CSc1ccccc1)NCc1ccc2c(c1)CCN2C(=O)c1ccccc1`, for which the “activity change, negative = inhibition” value is inactive: 6.42%.

Take `COc1cccc(-c2noc(CCCC(=O)NCc3ccco3)n2)c1`: the “activity change, negative = inhibition” value was inactive: -5.6%.

For the compound `COc1ccc(OC)c(S(=O)(=O)NCC(c2ccco2)S(=O)(=O)c2ccccc2)c1` (stereo not given), the “activity change, negative = inhibition” value is inactive: -12.8%.

On to `COc1ccc(CC2=NN3C([C@@H](CCc4ccccc4)[C@@H](C)O)=NC(C)C3C(=O)N2)cc1OC` (stereo not given in full), for which the “activity change, negative = inhibition” value was inactive: -8.93%.

`COc1ccc(OC)c(CNC(=O)c2ccc(NC(=O)c3nsc4ccccc34)cc2)c1`: the “activity change, negative = inhibition” value is inactive: 8.27%.

As for `COc1ccccc1N1CCN(Cc2nnc(-c3ccccc3C)o2)CC1`, the “activity change, negative = inhibition” value is inactive: 6.02%.

With `O=S(=O)(Nc1ccc(C(F)(F)F)cc1)c1ccc2c(c1)OCCO2`, the “activity change, negative = inhibition” value is inactive: -7.13%.

In the case of `O=C(NCCCc1nc2ccccc2n1Cc1cccc(Cl)c1)C1CCCCC1`, the “activity change, negative = inhibition” value is inactive: -0.342%.

On to `O=C(c1ccc2c(c1)N(Cc1ccc(Cl)cc1)C(=O)c1ccccc1S2=O)N1CCC(Cc2ccccc2)CC1` (stereo not given), for which the “activity change, negative = inhibition” value was inactive: 16.6%.

On to `CCOC(=O)c1cccc(NC(=O)c2ccc3nc(CCc4ccccc4)oc3c2)c1`, for which the “activity change, negative = inhibition” value is inactive: -1.42%.

Turning to `COCCCn1c(=O)c2sccc2n2c(CCCC(=O)Nc3cccc(C(F)(F)F)c3)nnc12`, the “activity change, negative = inhibition” value is inactive: 22%.

Consider `CC1=C(C(=O)Nc2ccccc2)C(c2ccc[nH]2)n2ncnc2N1` (stereo not given), for which the “activity change, negative = inhibition” value is inactive: -1.84%.

Regarding `CCCCOC(=O)c1ccc(NC(=O)c2csnn2)cc1`, the “activity change, negative = inhibition” value was inactive: 5.24%.

With `Cc1ccccc1OCC(=O)Nc1ccc2nc(SCC(N)=O)sc2c1`, the “activity change, negative = inhibition” value is inactive: -6.8%.

Take `Cc1cccc(C)c1NC(=O)CSc1nc2ccccc2c2nc(CCc3c(C)n[nH]c3C)nn12`: the “activity change, negative = inhibition” value was inactive: 2.3%.

Take `CCCOc1ccc(C(=O)Nc2ccc3oc(-c4ccc(N(C)C)cc4)nc3c2)cc1`: the “activity change, negative = inhibition” value is inactive: 3.11%.

Turning to `Cc1c(Cl)cccc1NC(=O)Cn1nnc(-c2nc(-c3ccccc3)no2)c1N`, the “activity change, negative = inhibition” value was inactive: 9.49%.

In the case of `Cc1c(NC(=O)c2sc3ccccc3c2Cl)cccc1-c1nc2ccccc2o1`, the “activity change, negative = inhibition” value was inactive: 12%.

As to `COC(=O)c1ccc(NC(=O)C(=O)NCC(c2cccnc2)N2CCc3ccccc32)cc1` (stereo not given), the “activity change, negative = inhibition” value was inactive: -4.34%.

As for `CCCOc1ccc(OC(=O)c2cn(-c3ccc(OC)cc3)c(=O)c3ccccc23)cc1`, the “activity change, negative = inhibition” value is inactive: -5.38%.

Take `CCn1cc(C(=O)NCCc2ccc(C)cc2)c(=O)c2cc(S(=O)(=O)N3CCC(C)CC3)ccc21`: the outcome was inactive.

For the compound `COc1ccc(CNC(=O)C2=CC(c3cccc(OC)c3)=NS(=O)(=O)N2C)cc1`, the “activity change, negative = inhibition” value was inactive: -7.17%.

For `O=C(OCc1cc(=O)n2nc(C3CC3)sc2n1)c1ccccc1Cl`, the compound was classed as inactive.
